Data from PubChem BioAssay AID504832 (National Center for Advancing Translational Sciences (NCATS), 2011).
Screen size: about 310,000 compounds; about 18,000 (5.8%) were called active. Inconclusive means that the source gave no clear call. Such entries were picked first, then a sample of the others. Calls come from the whole dose curve; as a rule, active = well fitted inhibition curve with a large enough effect; inconclusive = small, poorly fitted or top-dose-only effect, or another doubt; inactive = no such curve, though single readings can be large or run the other way. Potencies of inconclusive entries are left out as doubtful fits.

Experiment: Primary qHTS for delayed death inhibitors of the malarial parasite plastid, 48 hour incubation
Conditions: P. falciparum luciferase growth in erythrocytes; series mostly up to 28.7 µM
Outline: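 Erythrocytes infected with P. falciparum carrying an integrated firefly luciferase reporter (2% hematocrit, 0.1% parasitemia final) were exposed to compounds in RPMI 1640 with 0.5% Albumax at 37 C, 5% CO2. Growth inhibition was scored as reduced luminescence.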
Potency is the fitted concentration of half-maximal effect; tags give direction and shape of the fitted curve.

Row | Structure (SMILES) | Potency
1 | CC(=O)OCC(=O)[C@@]12OC3(CCCC3)O[C@@H]1C[C@H]1[C@@H]3CCC4=CC(=O)C=C[C@]4(C)[C@@]3(F)[C@@H](O)C[C@@]12C | active: 11.7 µM
2 | CCOc1cc(N2CCOCC2)c(OCC)cc1NC(=O)COC(=O)c1ccccc1C | inconclusive [inhibitor, partial curve]
3 | COc1cccc(-c2nc(-c3ccc4c(c3)NC(=O)CO4)cs2)c1 | inactive
4 | O=C(CSc1nnc(-c2ccccc2)n1Cc1ccco1)Nc1ccc(S(=O)(=O)N2CCCC2)cc1 | inconclusive [inhibitor, partial curve, poor fit]
5 | CCOC(=O)C1=NOC(C(=O)NN(C)c2ncc(C(F)(F)F)cc2Cl)C1 (stereo unspecified) | inconclusive [inhibitor, single point]
6 | Fc1ccccc1CSc1nnc(Cn2cnc3ccccc32)n1-c1ccccc1 | inconclusive [inhibitor, partial curve, poor fit]
7 | O=C(CSc1nnc(C2COc3ccccc3O2)o1)N1CCCC1 (stereo unspecified) | inconclusive [inhibitor, single point]
8 | CC(C)(C)c1ccc(C(=O)O[C@H]2[C@H](Cc3ccccc3)NS(=O)(=O)[C@H]3C[C@@H]4C=C[C@]23O4)cc1 | active: 13.1 µM
9 | C=CCNc1nnnc2c1sc1nc(N3CCOCC3)c3c(c12)CCCC3 | inconclusive [inhibitor, partial curve]
10 | O=Cc1ccc(OCc2nnsc2Cl)cc1 | inconclusive [inhibitor, single point]
11 | COc1cccc(-c2csc(N3CCN(C(=S)Nc4ccc(Cl)cc4)CC3)n2)c1 | inconclusive [inhibitor, partial curve, poor fit]
12 | COc1ccc(/C=N/n2cc(-c3ccccc3)nc2N)cc1 | inconclusive [inhibitor, single point]
13 | CCN1CCN(c2c(S(=O)(=O)c3ccc(C)c(C)c3)cnc3ccc(F)cc23)CC1 | inconclusive [inhibitor, single point]
14 | Cc1nonc1OCCNc1ccc([N+](=O)[O-])cc1 | inconclusive [inhibitor, single point]
15 | Cc1ccc(S(=O)(=O)C2(C(=O)NC3CCCC3)CC2)cc1 | inconclusive [inhibitor, single point]
16 | COc1ccc(C(=O)NC(=S)Nc2cccnc2)cc1OC | inactive
17 | COc1ccc(-c2cc(C(=O)N3CCN(c4ccccc4OC)CC3)no2)cc1OC | inconclusive [inhibitor, single point]
18 | COc1cccc(C(=O)N/N=C/C(Br)=C/c2ccccc2)c1 | active: 13.1 µM
19 | Cc1oc(-c2ccc(Cl)cc2)nc1CS(=O)CC(=O)NCCCN(C)C1CCCCC1 (stereo unspecified) | inconclusive [inhibitor, single point]
20 | CCCCCCC(=O)Nc1ccc(C(=O)N/N=C/c2cccnc2)cc1 | inconclusive [inhibitor, single point]
21 | O=C1CN(C(=O)c2ccccc2F)C(c2ccc(F)cc2)c2cc(F)ccc2N1 (stereo unspecified) | inconclusive [inhibitor, full curve]

Row | Structure (SMILES) | Potency
22 | CCOC(=O)Cc1csc(NS(=O)(=O)Cc2ccccc2)n1 | inactive
23 | CCCCSCCCNC(=O)Nc1ccc(C)c(C)c1 | inconclusive [inhibitor, single point]
24 | Cc1ccc(-c2c(C(=O)N/N=C/c3ccc(OC(C)C)cc3)nnn2-c2nonc2N)cc1 | active: 10.4 µM
25 | CCC(C)[C@H](N)C(=O)NC[C@H]1CC[C@H](C(=O)N[C@@H](Cc2ccccc2)C(=O)O)CC1 (stereo partly specified) | inactive
26 | O=C(COC(=O)CN1C(=O)C2CCCCC2C1=O)NNC(=O)c1ccc(Cl)cc1 (stereo unspecified) | inconclusive [inhibitor, single point]
27 | NC(=O)CC[C@H](NC(=O)c1ccc(F)cc1)C(=O)OCC(=O)Nc1ccc(N2CCOCC2)cc1 | inactive
28 | CCC(=O)N(C1=C(NC)C(=O)c2ccccc2C1=O)C(C)C | inconclusive [inhibitor, full curve]
29 | Cc1cccc(NC(=O)c2nc[nH]c2C(=O)N[C@@H](Cc2ccccc2)C(=O)OC(C)(C)C)c1 | inconclusive [inhibitor, partial curve]
30 | CCOC(=O)C1CCN(c2ncnc3c2c(-c2ccccc2)cn3-c2ccccc2)CC1 | inconclusive [inhibitor, partial curve, poor fit]
31 | COc1ccc(C2(C(=O)Nc3ccc(OC)cc3OC)CCCC2)cc1 | inconclusive [inhibitor, partial curve, poor fit]
32 | CCN(CC)Cc1c(O)ccc2c([N+](=O)[O-])c(C)n(-c3ccc(OC)cc3)c12 | inconclusive [inhibitor, single point]
33 | CCNC(=S)SCCOc1ccc(C)cc1 | inactive
34 | CC(=O)C(C)Oc1ccc(Cc2ncc(C(F)(F)F)cc2Cl)cc1 (stereo unspecified) | inconclusive [inhibitor, single point]
35 | Cc1ccccc1OCC(=O)Nc1ccc(N2CCN(C(=O)C(C)C)CC2)c(Cl)c1 | inconclusive [inhibitor, partial curve, poor fit]
36 | Cc1ccc(CN2CCSc3ccc(C(=O)N4CCC5(CC4)OCCO5)cc32)cc1 | inconclusive [inhibitor, partial curve]
37 | CCSC1(SCC)N=C(N)C2(C#N)C(c3ccc(OC)c(OC)c3OC)C12C#N (stereo unspecified) | inconclusive [inhibitor, partial curve, poor fit]
38 | CCN1C(=O)CC(C(=O)O)SC1=Nc1ccc(OC)cc1 (stereo unspecified) | inactive
39 | CC(NC(=O)CNC(=O)c1ccccc1F)c1ccc(-n2ccnc2)cc1 (stereo unspecified) | inactive
40 | CCOc1ccc(NC(=O)C2CCN(c3nnnn3-c3ccccc3)CC2)cc1 | inconclusive [inhibitor, single point]
41 | COc1ccc(Cc2nnc(Nc3ccc4c(c3)OCCO4)[nH]c2=O)cc1 | inactive
